Measurements reported in the supplement of paper PMC8728848.
The list shows a part of the results.

How the values were obtained:
Test in all cases: glycan array binding signal (z-score within array); higher = stronger binding
Details in all cases: glycan notation: IUPAC condensed, linker removed
Fuc(a1-2)Gal = biological target: Fuc(a1-2)Gal
Summary of the method: (§1)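 Glycan array data were curated from 3228 arrays in the Consortium for Functional Glycomics database and kept only where the protein sequence was available. Glycan names were converted to IUPAC-condensed notation, and columns mapping to the same glycan were averaged. The binding signal is a within-array Z-score, averaged across arrays of the same protein sequence at different concentrations or buffers and across linkers. Negative Z-scores can be read as non-binding.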

Fuc(a1-2)Gal(b1-3)GalNAc = biological target: Fuc(a1-2)Gal(b1-3)GalNAc
Summary of the method: as §1

[1] = biological target: Fuc(a1-2)Gal(b1-3)GalNAc(a1-3)[Fuc(a1-2)]Gal(b1-4)Glc
Summary of the method: as §1

[2] = biological target: Fuc(a1-2)Gal(b1-3)GalNAc(a1-3)[Fuc(a1-2)]Gal(b1-4)GlcNAc
Summary of the method: as §1

[3] = biological target: Fuc(a1-2)Gal(b1-3)GalNAc(b1-3)Gal
Summary of the method: as §1

[4] = biological target: Fuc(a1-2)Gal(b1-3)GalNAc(b1-3)Gal(a1-4)Gal(b1-4)Glc
Summary of the method: as §1

[5] = biological target: Fuc(a1-2)Gal(b1-3)GalNAc(b1-4)[Neu5Ac(a2-3)]Gal(b1-4)Glc
Summary of the method: as §1

Fuc(a1-2)Gal(b1-3)GlcNAc = biological target: Fuc(a1-2)Gal(b1-3)GlcNAc
Summary of the method: as §1

[6] = biological target: Fuc(a1-2)Gal(b1-3)GlcNAc(b1-2)Man(a1-3)[Fuc(a1-2)Gal(b1-3)GlcNAc(b1-2)Man(a1-6)]Man(b1-4)GlcNAc(b1-4)GlcNAc
Summary of the method: as §1

[7] = biological target: Fuc(a1-2)Gal(b1-3)GlcNAc(b1-2)Man(a1-3)[Fuc(a1-2)Gal(b1-3)GlcNAc(b1-2)Man(a1-6)]Man(b1-4)GlcNAc(b1-4)[Fuc(a1-6)]GlcNAc
Summary of the method: as §1

[8] = biological target: Fuc(a1-2)Gal(b1-3)GlcNAc(b1-3)Gal(b1-4)Glc
Summary of the method: as §1

[9] = biological target: Fuc(a1-2)Gal(b1-3)GlcNAc(b1-3)GalNAc
Summary of the method: as §1

[10] = biological target: Fuc(a1-2)Gal(b1-3)GlcNAc(b1-3)[Fuc(a1-2)Gal(b1-3)GlcNAc(b1-6)]GalNAc
Summary of the method: as §1

[11] = biological target: Fuc(a1-2)Gal(b1-3)GlcNAc(b1-3)[Gal(b1-4)GlcNAc(b1-6)]Gal(b1-4)Glc
Summary of the method: as §1

[12] = biological target: Fuc(a1-2)Gal(b1-3)GlcNAc(b1-3)[Neu5Ac(a2-6)Gal(b1-4)GlcNAc(b1-6)]Gal(b1-4)Glc
Summary of the method: as §1

[13] = biological target: Fuc(a1-2)Gal(b1-3)GlcNAc6S
Summary of the method: as §1

[14] = biological target: Fuc(a1-2)Gal(b1-3)[Fuc(a1-4)]GlcNAc
Summary of the method: as §1

[15] = biological target: Fuc(a1-2)Gal(b1-3)[Fuc(a1-4)]GlcNAc(b1-2)Man(a1-3)[Fuc(a1-2)Gal(b1-3)[Fuc(a1-4)]GlcNAc(b1-2)Man(a1-3)]Man(b1-4)GlcNAc(b1-4)GlcNAc
Summary of the method: as §1

[16] = biological target: Fuc(a1-2)Gal(b1-3)[Fuc(a1-4)]GlcNAc(b1-2)Man(a1-3)[Fuc(a1-2)Gal(b1-3)[Fuc(a1-4)]GlcNAc(b1-2)Man(a1-6)]Man(b1-4)GlcNAc(b1-4)[Fuc(a1-6)]GlcNAc(b1-4)[Fuc(a1-6)]GlcNAc
Summary of the method: as §1

[17] = biological target: Fuc(a1-2)Gal(b1-3)[Fuc(a1-4)]GlcNAc(b1-3)[Fuc(a1-3)[Gal(b1-4)]GlcNAc(b1-6)]Gal(b1-4)Glc
Summary of the method: as §1

[18] = biological target: Fuc(a1-2)Gal(b1-3)[Fuc(a1-4)]GlcNAc(b1-3)[Gal(b1-4)GlcNAc(b1-6)]Gal(b1-4)Glc
Summary of the method: as §1

Fuc(a1-2)Gal(b1-4)Glc = biological target: Fuc(a1-2)Gal(b1-4)Glc
Summary of the method: as §1

Fuc(a1-2)Gal(b1-4)Glc6S = biological target: Fuc(a1-2)Gal(b1-4)Glc6S
Summary of the method: as §1

Fuc(a1-2)Gal(b1-4)GlcNAc = biological target: Fuc(a1-2)Gal(b1-4)GlcNAc
Summary of the method: as §1

[19] = biological target: Fuc(a1-2)Gal(b1-4)GlcNAc(b1-2)Man
Summary of the method: as §1

[20] = biological target: Fuc(a1-2)Gal(b1-4)GlcNAc(b1-2)Man(a1-3)[Fuc(a1-2)Gal(b1-4)GlcNAc(b1-2)Man(a1-6)]Man(b1-4)GlcNAc(b1-4)GlcNAc
Summary of the method: as §1

[21] = biological target: Fuc(a1-2)Gal(b1-4)GlcNAc(b1-2)Man(a1-3)[Fuc(a1-2)Gal(b1-4)GlcNAc(b1-2)Man(a1-6)]Man(b1-4)GlcNAc(b1-4)[Fuc(a1-6)]GlcNAc
Summary of the method: as §1

[22] = biological target: Fuc(a1-2)Gal(b1-4)GlcNAc(b1-2)[Fuc(a1-2)Gal(b1-4)GlcNAc(b1-4)]Man(a1-3)[Fuc(a1-2)Gal(b1-4)GlcNAc(b1-2)Man(a1-6)]Man(b1-4)GlcNAc(b1-4)GlcNAc
Summary of the method: as §1

[23] = biological target: Fuc(a1-2)Gal(b1-4)GlcNAc(b1-3)Gal(b1-4)GlcNAc
Summary of the method: as §1

[24] = biological target: Fuc(a1-2)Gal(b1-4)GlcNAc(b1-3)Gal(b1-4)GlcNAc(b1-2)Man(a1-3)[Fuc(a1-2)Gal(b1-4)GlcNAc(b1-3)Gal(b1-4)GlcNAc(b1-2)Man(a1-6)]Man(b1-4)GlcNAc(b1-4)GlcNAc
Summary of the method: as §1

B1: PX9937D-bvu-500-26-500 (Bacteroides vulgatus) (protein)
chain: DPVSDITDLNYWKTPEQFDSFVFGLHSRFRSHSWNMFLLGEARSDVFGGIPFGGEATQGMERFPYNTLNAENPGISGFGDLYQNINQMNLFISRTLHTDVLTESARNYYLGQVYGLRAYYMYQLYRSWGDVVFTEEPSLGFEVGKLAKAATPAAEIFEQVKKDIESSLSYFGSDYTIKEKKSLWSKAATLMLKADVYLWSAHRDGGEGDARTAKNALVDIQNNISRSNLDLMDTYQGVFAYDNKGNKEIIFTIHNELFEYNLWNGNNDLFPQADYLGKFYNADGTLINTSVENNFGIMRLMVKLENFKKFLPGDTRRDVTLKDVYNKVENGKLELVGVYPHKYWGVMNGSTRVRCDDYPIYRYSDLLLMLAEAKVLLGEDPATEINRVRRRAFGDAYDASTVGFPNQEVDKRPADAVLQERLFEFMLEGKRWYDLRRFGDSYVLDYTPAEPARLLWPINQGALTNNPLLKQTVGY
Q: B1 was tested. Which “glycan array binding signal (z-score)” value (Fuc(a1-2)Gal) did it give?
A: Its value is -0.144.

Q: What about the “glycan array binding signal (z-score)” value (Fuc(a1-2)Gal(b1-3)GalNAc) of the same binder?
A: Its value is -0.346.

Q: What about the “glycan array binding signal (z-score)” value [1] of the same binder?
A: Its value is -0.631.

Q: And the “glycan array binding signal (z-score)” value [2]?
A: The value was -0.625.

Q: And the “glycan array binding signal (z-score)” value [3]?
A: The value was 0.258.

Q: What about the “glycan array binding signal (z-score)” value [4] of the same binder?
A: Its value is 0.37.

Q: What about the “glycan array binding signal (z-score)” value [5] of the same binder?
A: The value was -0.261.

Q: What about the “glycan array binding signal (z-score)” value (Fuc(a1-2)Gal(b1-3)GlcNAc) of the same binder?
A: Its value is -0.32.

Q: And the “glycan array binding signal (z-score)” value [6]?
A: The value was 0.319.

Q: And the “glycan array binding signal (z-score)” value [7]?
A: The value was -0.066.

Q: And the “glycan array binding signal (z-score)” value [8]?
A: Its value is -0.541.

Q: What about the “glycan array binding signal (z-score)” value [9] of the same binder?
A: The value was -0.087.

Q: What about the “glycan array binding signal (z-score)” value [10] of the same binder?
A: The value was -0.163.

Q: And the “glycan array binding signal (z-score)” value [11]?
A: The value was -0.166.

Q: What about the “glycan array binding signal (z-score)” value [12] of the same binder?
A: The value was -0.051.

Q: And the “glycan array binding signal (z-score)” value [13]?
A: The value was 0.249.

Q: And the “glycan array binding signal (z-score)” value [14]?
A: The value was -0.665.

Q: And the “glycan array binding signal (z-score)” value [15]?
A: The value was 0.219.

Q: What about the “glycan array binding signal (z-score)” value [16] of the same binder?
A: Its value is -0.265.

Q: And the “glycan array binding signal (z-score)” value [17]?
A: Its value is 0.103.

Q: And the “glycan array binding signal (z-score)” value [18]?
A: The value was -0.131.

Q: What about the “glycan array binding signal (z-score)” value (Fuc(a1-2)Gal(b1-4)Glc) of the same binder?
A: Its value is -0.401.

Q: And the “glycan array binding signal (z-score)” value (Fuc(a1-2)Gal(b1-4)Glc6S)?
A: Its value is -0.128.

Q: And the “glycan array binding signal (z-score)” value (Fuc(a1-2)Gal(b1-4)GlcNAc)?
A: Its value is -0.263.

Q: And the “glycan array binding signal (z-score)” value [19]?
A: The value was -0.43.

Q: And the “glycan array binding signal (z-score)” value [20]?
A: Its value is 1.07.

Q: And the “glycan array binding signal (z-score)” value [21]?
A: Its value is 2.63.

Q: What about the “glycan array binding signal (z-score)” value [22] of the same binder?
A: The value was 0.277.

Q: What about the “glycan array binding signal (z-score)” value [23] of the same binder?
A: The value was -0.632.

Q: And the “glycan array binding signal (z-score)” value [24]?
A: The value was -0.017.
